Some of the results follow.
Columns and labels:
Assay in all cases: glycan array binding signal (z-score within array); higher = stronger binding
Conditions in all cases: glycan notation: IUPAC condensed, linker removed
[1] = target: Neu5Ac(a2-3)Gal6S(b1-4)GlcNAc
How it was run: (§1)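 The binding signal is a Z-score computed within each array and averaged over linkers. Arrays of the same protein sequence at different concentrations or buffers were also averaged together. Data originate from 3228 arrays in the Consortium for Functional Glycomics database, kept only where the protein sequence was available.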

[2] = target: Neu5Ac(a2-3)Gal6S(b1-4)[Fuc(a1-3)]GlcNAc
How it was run: as §1

[3] = target: Neu5Ac(a2-3)GalNAc
How it was run: as §1

[4] = target: Neu5Ac(a2-3)GalNAc(b1-4)GlcNAc
How it was run: as §1

[5] = target: Neu5Ac(a2-3)[GalNAc(b1-4)]Gal(b1-4)Glc
How it was run: as §1

[6] = target: Neu5Ac(a2-3)[GalNAc(b1-4)]Gal(b1-4)GlcNAc
How it was run: as §1

[7] = target: Neu5Ac(a2-3)[GalNAc(b1-4)]Gal(b1-4)GlcNAc(b1-3)GalNAc
How it was run: as §1

[8] = target: Neu5Ac(a2-3)[Neu5Ac(a2-6)]GalNAc
How it was run: as §1

[9] = target: Neu5Ac(a2-6)Gal
How it was run: as §1

[10] = target: Neu5Ac(a2-6)Gal(b1-3)GlcNAc(b1-3)[Gal(b1-4)GlcNAc(b1-6)]Gal(b1-4)Glc
How it was run: as §1

[11] = target: Neu5Ac(a2-6)Gal(b1-4)Glc
How it was run: as §1

[12] = target: Neu5Ac(a2-6)Gal(b1-4)GlcNAc
How it was run: as §1

[13] = target: Neu5Ac(a2-6)Gal(b1-4)GlcNAc(b1-2)Man
How it was run: as §1

[14] = target: Neu5Ac(a2-6)Gal(b1-4)GlcNAc(b1-2)Man(a1-3)Man(b1-4)GlcNAc(b1-4)GlcNAc
How it was run: as §1

[15] = target: Neu5Ac(a2-6)Gal(b1-4)GlcNAc(b1-2)Man(a1-3)[Gal(b1-4)GlcNAc(b1-2)Man(a1-6)]Man(b1-4)GlcNAc(b1-4)GlcNAc
How it was run: as §1

[16] = target: Neu5Ac(a2-6)Gal(b1-4)GlcNAc(b1-2)Man(a1-3)[GlcNAc(b1-2)Man(a1-6)]Man(b1-4)GlcNAc(b1-4)GlcNAc
How it was run: as §1

[17] = target: Neu5Ac(a2-6)Gal(b1-4)GlcNAc(b1-2)Man(a1-3)[GlcNAc(b1-4)][Neu5Ac(a2-6)Gal(b1-4)GlcNAc(b1-2)Man(a1-6)]Man(b1-4)GlcNAc(b1-4)GlcNAc
How it was run: as §1

[18] = target: Neu5Ac(a2-6)Gal(b1-4)GlcNAc(b1-2)Man(a1-3)[Man(a1-6)]Man(b1-4)GlcNAc(b1-4)GlcNAc
How it was run: as §1

[19] = target: Neu5Ac(a2-6)Gal(b1-4)GlcNAc(b1-2)Man(a1-3)[Neu5Ac(a2-3)Gal(b1-4)GlcNAc(b1-2)Man(a1-6)]Man(b1-4)GlcNAc(b1-4)GlcNAc
How it was run: as §1

[20] = target: Neu5Ac(a2-6)Gal(b1-4)GlcNAc(b1-2)Man(a1-3)[Neu5Ac(a2-6)Gal(b1-4)GlcNAc(b1-2)Man(a1-6)]Man(b1-4)GlcNAc(b1-4)GlcNAc
How it was run: as §1

[21] = target: Neu5Ac(a2-6)Gal(b1-4)GlcNAc(b1-2)Man(a1-3)[Neu5Ac(a2-6)Gal(b1-4)GlcNAc(b1-2)Man(a1-6)]Man(b1-4)GlcNAc(b1-4)[Fuc(a1-6)]GlcNAc
How it was run: as §1

[22] = target: Neu5Ac(a2-6)Gal(b1-4)GlcNAc(b1-2)Man(a1-6)Man(b1-4)GlcNAc(b1-4)GlcNAc
How it was run: as §1

[23] = target: Neu5Ac(a2-6)Gal(b1-4)GlcNAc(b1-2)Man(a1-6)[Gal(b1-4)GlcNAc(b1-2)Man(a1-3)]Man(b1-4)GlcNAc(b1-4)GlcNAc
How it was run: as §1

[24] = target: Neu5Ac(a2-6)Gal(b1-4)GlcNAc(b1-2)Man(a1-6)[GlcNAc(b1-2)Man(a1-3)]Man(b1-4)GlcNAc(b1-4)GlcNAc
How it was run: as §1

[25] = target: Neu5Ac(a2-6)Gal(b1-4)GlcNAc(b1-2)Man(a1-6)[Man(a1-3)]Man(b1-4)GlcNAc(b1-4)GlcNAc
How it was run: as §1

[26] = target: Neu5Ac(a2-6)Gal(b1-4)GlcNAc(b1-2)[Neu5Ac(a2-6)Gal(b1-4)GlcNAc(b1-4)]Man(a1-3)[GlcNAc(b1-4)][Neu5Ac(a2-6)Gal(b1-4)GlcNAc(b1-2)[Neu5Ac(a2-6)Gal(b1-4)GlcNAc(b1-6)]Man(a1-6)]Man(b1-4)GlcNAc(b1-4)GlcNAc
How it was run: as §1

[27] = target: Neu5Ac(a2-6)Gal(b1-4)GlcNAc(b1-2)[Neu5Ac(a2-6)Gal(b1-4)GlcNAc(b1-4)]Man(a1-3)[GlcNAc(b1-4)][Neu5Ac(a2-6)Gal(b1-4)GlcNAc(b1-4)Man(a1-6)]Man(b1-4)GlcNAc(b1-4)GlcNAc
How it was run: as §1

[28] = target: Neu5Ac(a2-6)Gal(b1-4)GlcNAc(b1-2)[Neu5Ac(a2-6)Gal(b1-4)GlcNAc(b1-6)]Man(a1-6)[Neu5Ac(a2-6)Gal(b1-4)GlcNAc(b1-2)Man(a1-3)][GlcNAc(b1-4)]Man(b1-4)GlcNAc(b1-4)GlcNAc
How it was run: as §1

[29] = target: Neu5Ac(a2-6)Gal(b1-4)GlcNAc(b1-3)Gal(b1-3)GlcNAc
How it was run: as §1

[30] = target: Neu5Ac(a2-6)Gal(b1-4)GlcNAc(b1-3)Gal(b1-4)GlcNAc
How it was run: as §1

[31] = target: Neu5Ac(a2-6)Gal(b1-4)GlcNAc(b1-3)Gal(b1-4)GlcNAc(b1-2)Man(a1-3)[Neu5Ac(a2-6)Gal(b1-4)GlcNAc(b1-3)Gal(b1-4)GlcNAc(b1-2)Man(a1-6)]GalNAc
How it was run: as §1

[32] = target: Neu5Ac(a2-6)Gal(b1-4)GlcNAc(b1-3)Gal(b1-4)GlcNAc(b1-3)Gal(b1-4)GlcNAc
How it was run: as §1

[33] = target: Neu5Ac(a2-6)Gal(b1-4)GlcNAc(b1-3)Gal(b1-4)GlcNAc(b1-3)Gal(b1-4)GlcNAc(b1-2)Man(a1-3)[Neu5Ac(a2-6)Gal(b1-4)GlcNAc(b1-3)Gal(b1-4)GlcNAc(b1-3)Gal(b1-4)GlcNAc(b1-2)Man(a1-6)]GalNAc
How it was run: as §1

[34] = target: Neu5Ac(a2-6)Gal(b1-4)GlcNAc(b1-3)Gal(b1-4)GlcNAc(b1-3)GalNAc
How it was run: as §1

[35] = target: Neu5Ac(a2-6)Gal(b1-4)GlcNAc(b1-3)Gal(b1-4)GlcNAc(b1-3)[Neu5Ac(a2-6)Gal(b1-4)GlcNAc(b1-3)Gal(b1-4)GlcNAc(b1-6)]GalNAc
How it was run: as §1

[36] = target: Neu5Ac(a2-6)Gal(b1-4)GlcNAc(b1-3)Gal(b1-4)GlcNAc(b1-6)[Gal(b1-3)]GalNAc
How it was run: as §1

[37] = target: Neu5Ac(a2-6)Gal(b1-4)GlcNAc(b1-3)Gal(b1-4)[Fuc(a1-3)]GlcNAc(b1-3)Gal(b1-4)[Fuc(a1-3)]GlcNAc
How it was run: as §1

[38] = target: Neu5Ac(a2-6)Gal(b1-4)GlcNAc(b1-3)GalNAc
How it was run: as §1

[39] = target: Neu5Ac(a2-6)Gal(b1-4)GlcNAc(b1-3)[Neu5Ac(a2-6)Gal(b1-4)GlcNAc(b1-6)]GalNAc
How it was run: as §1

[40] = target: Neu5Ac(a2-6)Gal(b1-4)GlcNAc(b1-6)GalNAc
How it was run: as §1

[41] = target: Neu5Ac(a2-6)Gal(b1-4)GlcNAc(b1-6)[Gal(b1-3)GlcNAc(b1-3)]Gal(b1-4)Glc
How it was run: as §1

[42] = target: Neu5Ac(a2-6)Gal(b1-4)GlcNAc(b1-6)[Gal(b1-3)]GalNAc
How it was run: as §1

[43] = target: Neu5Ac(a2-6)Gal(b1-4)GlcNAc6S
How it was run: as §1

[44] = target: Neu5Ac(a2-6)GalNAc
How it was run: as §1

[45] = target: Neu5Ac(a2-6)GalNAc(b1-4)GlcNAc
How it was run: as §1

B1: Epa15 (Candida glabrata) (protein)
chain: MGSSHHHHHHSSGLVPRGSHMASDPTTFPLGCSPEFTKTKKGLSMELYRYDYLPPGSYPCWDSAYLNPSYPRTGYKAKKLIATVDGVSGDINFKFNPKFGCKAIPDYLPSNFNYHEPITITNFTMILYGYFMPKTTAFHTFYVTADDLLFMNFGAGNAFDCCRREETADKFGNYAAYSVWGKKSLKNELTVYLHTGVYYPIRLFYNNRDYIAQLDIRFKTEHSNAIITNFTDYFYSVDDSSLGCPGLI
- glycan array binding signal (z-score) [1]: -0.229
- glycan array binding signal (z-score) [2]: -0.48
- glycan array binding signal (z-score) [3]: -0.487
- glycan array binding signal (z-score) [4]: -0.394
- glycan array binding signal (z-score) [5]: -0.077
- glycan array binding signal (z-score) [6]: -0.321
- glycan array binding signal (z-score) [7]: 0.848
- glycan array binding signal (z-score) [8]: -0.406
- glycan array binding signal (z-score) [9]: 0.848
- glycan array binding signal (z-score) [10]: -0.156
- glycan array binding signal (z-score) [11]: -0.36
- glycan array binding signal (z-score) [12]: -0.488
- glycan array binding signal (z-score) [13]: -0.301
- glycan array binding signal (z-score) [14]: -0.073
- glycan array binding signal (z-score) [15]: -0.271
- glycan array binding signal (z-score) [16]: 0.595
- glycan array binding signal (z-score) [17]: -0.406
- glycan array binding signal (z-score) [18]: 0.771
- glycan array binding signal (z-score) [19]: -0.227
- glycan array binding signal (z-score) [20]: -0.15
- glycan array binding signal (z-score) [21]: 0.757
- glycan array binding signal (z-score) [22]: 0.169
- glycan array binding signal (z-score) [23]: 0.521
- glycan array binding signal (z-score) [24]: -0.447
- glycan array binding signal (z-score) [25]: -0.221
- glycan array binding signal (z-score) [26]: -0.317
- glycan array binding signal (z-score) [27]: 0.519
- glycan array binding signal (z-score) [28]: 0.218
- glycan array binding signal (z-score) [29]: -0.125
- glycan array binding signal (z-score) [30]: -0.531
- glycan array binding signal (z-score) [31]: 0.185
- glycan array binding signal (z-score) [32]: -0.457
- glycan array binding signal (z-score) [33]: 0.771
- glycan array binding signal (z-score) [34]: 0.001
- glycan array binding signal (z-score) [35]: 0.183
- glycan array binding signal (z-score) [36]: 1.45
- glycan array binding signal (z-score) [37]: -0.177
- glycan array binding signal (z-score) [38]: -0.02
- glycan array binding signal (z-score) [39]: 1.52
- glycan array binding signal (z-score) [40]: 0.323
- glycan array binding signal (z-score) [41]: 0.353
- glycan array binding signal (z-score) [42]: 0.581
- glycan array binding signal (z-score) [43]: -0.386
- glycan array binding signal (z-score) [44]: -0.4
- glycan array binding signal (z-score) [45]: -0.546
